Data reported in PubChem BioAssay AID485281 (National Center for Advancing Translational Sciences (NCATS), 2010).
Out of some 350,000 compounds screened, about 260 (0.074%) were called active. Inconclusive results, whose numbers are uncertain, are shown with a selection of clear calls. Calls come from the whole dose curve; as a rule, active = well fitted inhibition curve with a large enough effect; inconclusive = small, poorly fitted or top-dose-only effect; inactive = no such curve, though single readings can be large or run the other way. Potencies beside an inconclusive call are fits to weak or partial responses and may not hold up.
Note: nearly all actives have a fitted effect of over 20% in size.
Potency is the fitted concentration of half-maximal effect; tags give direction and shape of the fitted curve.

Each compound was assayed against Ferritin light chain (Equus caballus) (UniProt P02791) (assay: qHTS Assay for Identification of Novel General Anesthetics). Conditions: apoferritin/1-aminoanthracene competitive binding, fluorescence; series mostly up to 77.5 µM.
Chain of UniProt P02791 (P02791 whole entry, looked up): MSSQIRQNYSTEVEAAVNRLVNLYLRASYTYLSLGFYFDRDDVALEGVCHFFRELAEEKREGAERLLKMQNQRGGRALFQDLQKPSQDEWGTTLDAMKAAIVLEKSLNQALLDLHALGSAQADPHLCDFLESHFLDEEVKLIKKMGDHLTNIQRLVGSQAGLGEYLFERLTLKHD
How it was run: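 Apoferritin-based anesthetic binding model; compound displacement of fluorescent 1-AMA measured as endpoint fluorescence after 10 minutes at room temperature, scaled to free-ligand and complex controls.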
With O=C(CC(=O)Nc1ccc(Cl)c(Cl)c1)N/N=C/c1ccc(O)cc1 the Potency was inconclusive: 12.6 µM [inhibitor, partial curve].
For CCCN(Cc1cccs1)C(=O)Nc1ccc(Br)c(C)c1, the Potency was inconclusive: 35.5 µM [inhibitor, single point].
In the case of Cc1ccc(NC(=O)c2cc(-c3ccco3)on2)cc1C, the Potency is reported as inconclusive: 12.6 µM [inhibitor, partial curve].
With O=C1COc2ccc(C(=O)COC(=O)Cn3cnc4ccccc43)cc2N1 the Potency was inconclusive: 31.6 µM [inhibitor, partial curve].
For COc1ccc(CN2CCNC(=O)C2CC(=O)NC2CCCCCC2)c(C)c1C (stereo not drawn), the Potency was inconclusive: 50.1 µM [inhibitor, single point].
With Cc1ccc(SCC(=O)NCCSCc2ccccc2)cc1 the Potency was inconclusive: 56.2 µM [inhibitor, single point].
With O=C(Cc1ccsc1-c1ccccc1)NO the Potency was “inactive”.
In the case of Cc1cccc(Nc2nc(N)nc(CCl)n2)c1, the Potency is reported as “inactive”.
Cc1ccc(C(=O)CCC(=O)NC2CCCC(C)C2C)cc1 (stereo not drawn) was tested, and the Potency was inconclusive: 15.8 µM [inhibitor, partial curve].
With O=C(CC1C(=O)NCCN1CC1CCCCC1)NCc1ccccc1Cl (stereo not drawn) the Potency was inconclusive: 39.8 µM [inhibitor, single point].
With CN1c2cc3c(cc2N=C(c2ccc(C(=O)O)cc2)c2ccccc21)C(C)(C)CCC3(C)C the Potency was inconclusive: 28.2 µM [inhibitor, partial curve].
Cc1ccc(C(=O)Nc2ccc3[nH]c(=O)[nH]c3c2)c(C)c1 was tested, and the Potency was “inactive”.
Cc1cc(C)cc(NC(=O)CN(C)S(=O)(=O)c2cccc3nsnc23)c1 was tested, and the Potency was inconclusive: 35.5 µM [inhibitor, partial curve].
For COc1ccc(C(=O)CN(C(=O)c2ccc(Cl)cc2)N2C(=O)C3CCCCC3C2=O)cc1 (stereo not drawn), the Potency was inconclusive: 7.94 µM [inhibitor, partial curve].
In the case of COC(=O)c1c(-c2ccc(Cl)cc2)noc1N1CCN(c2cccc(OC)c2)CC1, the Potency is reported as “inactive”.
With CC(CC(=O)Nc1cc(C(F)(F)F)ccc1Cl)c1ccccc1 (stereo not drawn) the Potency was inconclusive: 17.8 µM [inhibitor, partial curve].
In the case of CCCCCn1c(=O)[nH]c2cc(C(=O)N3CCN(c4ccccc4F)CC3)ccc2c1=O, the Potency is reported as inconclusive: 31.6 µM [inhibitor, partial curve].
O=C1C2C3C=CC(C3)C2C(=O)N1c1cccc2cccnc12 (stereo not drawn) was tested, and the Potency was inconclusive: 39.8 µM [inhibitor, partial curve].
With O=c1c2ccccc2nnn1Cc1ccccc1 the Potency was inconclusive: 44.7 µM [inhibitor, partial curve].
With CCOC(=O)c1ccccc1NC(=O)c1cccs1 the Potency was inconclusive: 25.1 µM [inhibitor, single point].
In the case of Cc1cc(N)n(-c2ccc3ccccc3c2)n1, the Potency is reported as inconclusive: 31.6 µM [inhibitor, single point].
CC1CCN(C(=O)COc2ccc(Nc3ccccc3)cc2)CC1 was tested, and the Potency was inconclusive: 28.2 µM [inhibitor, partial curve].
With O=C(CCC(=O)N1CCOc2ccccc21)Nc1ccccc1Cl the Potency was inconclusive: 22.4 µM [inhibitor, single point].
For O=C(CNC(=O)c1ccc(S(=O)(=O)N2CCCC2)cc1)N/N=C/c1ccc(Cl)cc1, the Potency was inconclusive: 10 µM [inhibitor, partial curve].
CCN(CC)C1CCN(C(=O)c2cc(COc3ccc(F)cc3Cl)on2)C1 (stereo not drawn) was tested, and the Potency was inconclusive: 28.2 µM [inhibitor, partial curve].
In the case of COCCN1CCn2c(nc3cc(NC(=O)NC4CCCCC4)ccc32)C1, the Potency is reported as “inactive”.
In the case of Cc1cccc(-n2nnnc2SCC(=O)NCCN2C(=O)CSC2=O)c1, the Potency is reported as inconclusive: 39.8 µM [inhibitor, partial curve].
For Cc1ccc(NC(=O)CSc2nc3nccnc3c(=O)n2CCc2c[nH]c3ccccc23)c(C)c1, the Potency was “inactive”.
In the case of O=[N+]([O-])c1cc(C(F)(F)F)ccc1Sc1nccn1Cc1ccccc1, the Potency is reported as inconclusive: 31.6 µM [inhibitor, partial curve].
CCSc1nnc(NC(=O)C2CCCCC2)s1 was tested, and the Potency was inconclusive: 28.2 µM [inhibitor, partial curve].
CC(=O)c1ccc(NC(=S)NCCc2cccc(Cl)c2)cc1 was tested, and the Potency was inconclusive: 25.1 µM [inhibitor, partial curve].
CN(C)CCCN(C(=O)c1ccc(S(=O)(=O)N2CCc3ccccc32)cc1)c1nc2ccc(Cl)cc2s1 was tested, and the Potency was inconclusive: 50.1 µM [inhibitor, single point].
O=C(CNC(=O)C1CCCCC1)NNC(=O)c1ccccc1Br was tested, and the Potency was inconclusive: 35.5 µM [inhibitor, partial curve].
In the case of O=C(CN1C(=O)CSc2cc(S(=O)(=O)N3CCCCCC3)ccc21)NCCc1ccccc1, the Potency is reported as inconclusive: 11.2 µM [inhibitor, partial curve].
With COc1cc([C@@H]2CC(=O)c3c(O)cc(O)cc3O2)ccc1O the Potency was inconclusive: 17.8 µM [inhibitor, single point].
With CCCSc1nsc(SCCC)c1C#N the Potency was inconclusive: 39.8 µM [inhibitor, single point].
For O=C(N/C(=C\c1ccc(-c2ccccc2)o1)C(=O)N1CCOCC1)c1ccccc1, the Potency was inconclusive: 22.4 µM [inhibitor, partial curve].
CC1Sc2ccc(S(=O)(=O)CCC(=O)N3CCN(c4ccccc4)CC3)cc2NC1=O (stereo not drawn) was tested, and the Potency was “inactive”.
For NC(=O)C1CCN(Cc2nc3cc(Cl)ccc3c(=O)[nH]2)CC1, the Potency was “inactive”.
With CS(=O)(=O)Nc1ccc(C(=O)Nc2ccc(S(=O)(=O)N3CCCCC3)cc2)cc1 the Potency was inconclusive: 20 µM [inhibitor, partial curve].
With Cc1[nH]c2ccccc2c1/C=N/NC(=S)NCc1ccccc1 the Potency was “inactive”.
For O=C(OCc1ccc(Cl)cc1Cl)c1ccncc1, the Potency was inconclusive: 31.6 µM [inhibitor, partial curve].
With Cc1nc2ccc(S(=O)(=O)NCC(=O)Nc3ccc(C)c(Cl)c3)cc2s1 the Potency was inconclusive: 39.8 µM [inhibitor, single point].
